Measured values reported in the supplement of paper PMC3334620.
In all, about 33,000 sequences were measured (“E-score (-0.5 to 0.5)”: median about -0.012, highest 2% from about 0.29 on). Some of the results follow.

Molecular target: T1, Ybr033w (UniProt P38073)
T1 sequence: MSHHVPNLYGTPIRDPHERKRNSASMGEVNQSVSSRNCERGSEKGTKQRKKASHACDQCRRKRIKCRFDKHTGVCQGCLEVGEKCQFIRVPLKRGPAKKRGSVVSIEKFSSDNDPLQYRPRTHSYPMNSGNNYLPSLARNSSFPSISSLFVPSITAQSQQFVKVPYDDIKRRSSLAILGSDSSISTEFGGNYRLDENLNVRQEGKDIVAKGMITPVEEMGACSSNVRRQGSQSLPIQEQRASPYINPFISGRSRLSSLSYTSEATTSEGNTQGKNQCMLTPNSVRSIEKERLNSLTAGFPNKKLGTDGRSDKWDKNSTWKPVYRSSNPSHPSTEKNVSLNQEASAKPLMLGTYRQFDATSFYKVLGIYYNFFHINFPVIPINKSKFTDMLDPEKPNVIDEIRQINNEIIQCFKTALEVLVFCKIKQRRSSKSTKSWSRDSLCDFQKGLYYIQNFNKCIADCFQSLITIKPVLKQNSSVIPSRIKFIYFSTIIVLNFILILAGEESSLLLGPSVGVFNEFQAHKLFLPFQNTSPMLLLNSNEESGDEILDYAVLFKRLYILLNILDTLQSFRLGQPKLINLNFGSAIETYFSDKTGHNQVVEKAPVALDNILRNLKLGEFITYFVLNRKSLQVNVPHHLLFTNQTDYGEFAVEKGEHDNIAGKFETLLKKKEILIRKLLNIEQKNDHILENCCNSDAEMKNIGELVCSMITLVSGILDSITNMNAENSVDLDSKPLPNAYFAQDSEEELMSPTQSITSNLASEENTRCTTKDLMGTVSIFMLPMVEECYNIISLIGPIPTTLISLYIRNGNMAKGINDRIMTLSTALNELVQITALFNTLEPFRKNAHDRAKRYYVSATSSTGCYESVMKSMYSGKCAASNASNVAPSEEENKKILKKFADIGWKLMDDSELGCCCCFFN
Assay: PBM E-score (8-mer binding enrichment) (E-score (-0.5 to 0.5)); higher = stronger / more preferred TF binding; most listed sequences are background and not binding sites
Settings: protein concentration: 200 nM; construct: GST-full length
Protocol: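 Universal 'all 10-mer' protein binding microarrays (Agilent AMADID 015681) probed with GST-tagged S. cerevisiae TFs (full-length or DBD) made by in vitro transcription/translation (PURExpress), about 100-200 nM. Bound TF was detected with fluorescent anti-GST. Each ungapped 8-mer (which stands for itself and its reverse complement) is scored by the PBM enrichment score (E-score), a modified Wilcoxon-Mann-Whitney statistic from -0.5 to +0.5, computed with the Universal PBM Analysis Suite. Scale: above 0.35 generally sequence-specific binding.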

Row | Sequence | PBM E-score
1 | AAACGCAG | -0.0761
2 | AGTTAAGA | -0.056
3 | CGCTGACC | 0.111
4 | TCATATCA | 0.203
5 | CCATCCAC | -0.165
6 | CCGCAACG | -0.154
7 | ATTATCAA | 0.193
8 | AACTGATC | 0.0318
9 | ATAGGGTG | 0.0433
10 | GTTGGATA | 0.154
11 | CATAAGGA | -0.0123
12 | AGTCATCC | -0.165
13 | GCGCGTAC | -0.0241
14 | CAGCCCGG | -0.192
15 | AGGCTCTA | -0.0412
16 | CCCATCGG | -0.13
17 | ACTCTTGG | -0.0313
18 | CTCCGACA | -0.0704
19 | ATCGCTCC | -0.0844
20 | TCAAGAGA | 0.0989
21 | AATGGAAG | 0.0701
22 | CTGCCGAA | -0.0277

Row | Sequence | PBM E-score
23 | CACTACCC | -0.0408
24 | ACGACATC | -0.18
25 | ACTGGCGA | -0.129
26 | CCTGGAAG | 0.0497
27 | ACACCGAG | -0.114
28 | CAGGATCG | -0.178
29 | ACTAGCGC | -0.0932
30 | CCCGGAAA | 0.192
31 | AAAGAGAG | -0.162
32 | CAATTTCG | 0.108
33 | ACTAATCA | 0.122
34 | CAAGAGGG | -0.125
35 | CGGGAGAA | 0.0735
36 | TACGGGAA | -0.118
37 | AGGAGTTA | 0.149
38 | ACCACCCG | -0.159
39 | AACGTATG | 0.07
40 | CCTCATGA | -0.108
41 | TCACATCA | 0.0866
42 | AGGGCTAT | -0.0925
43 | ACCTAGTC | -0.0849
44 | ATCCGTTG | 0.0488

Row | Sequence | PBM E-score
45 | TACACGAA | 0.185
46 | GACCACCC | -0.311
47 | ATGGATGA | 0.0759
48 | ACGTAAGT | 0.0143
49 | AAGCCTTG | -0.12
50 | ACCTTGAA | 0.102
51 | CCGGAGCC | -0.0532
52 | ATACGATA | 0.158
53 | GCCTGGCC | -0.172
54 | CCTATCCA | -0.0722
55 | GACTATGC | -0.0965
56 | ACTATGAC | 0.111
57 | ATTTGTCG | 0.263
58 | ACGAACTG | -0.0447
59 | AAATTACG | 0.111
60 | AGGGATGC | -0.313
61 | AACATGAG | -0.0169
62 | ATGGCAAA | -0.0059
63 | AAACATCC | 0.192
64 | CTACACGA | 0.0651
65 | AATGTATC | 0.178
66 | AGAAGAAC | 0.171

Row | Sequence | PBM E-score
67 | CGCATGAA | 0.0716
68 | AGGCACAT | 0.042
69 | CACACACA | -0.0215
70 | CAGCAGAA | -0.00146
71 | CCTGCGAA | -0.0293
72 | GCGTCGAA | 0.0364
73 | CCCATCCC | -0.23
74 | CTAACTAG | 0.199
75 | AGCAGGGA | -0.00624
76 | AAAACCGA | 0.211
77 | CCTGAAGA | -0.0579
78 | GAACGACC | -0.312
79 | TCATGACA | 0.101
80 | ATTAATCA | 0.26
81 | TCCCGTCA | -0.0539
82 | CGCGATGA | 0.051
83 | AATGTCTG | 0.0795
84 | AATCGAGG | 0.166
85 | CTCCACAG | -0.141
86 | CAATGTAA | 0.173
